Results as given in publication PMC12276331, “Nanomechanical binding mechanism of ligands drives agonistic activity” (Nature Communications, 2025).

Target: T1, Active trimeric human CD40 ligand (hCD40L/hCD154; residues 116G-261L) with N-terminal His6-tag (CDL-H5248) (human, UniProt P29965 116-261)
T1 construct: CD40 ligand (CD154), human, residues 116G-261L; Used for SMFS (coupled to the tip by its His6-tag through tris-NTA/Ni) and for HS-AFM; also called trimeric hCD40L; source: bought: AcroBiosystems, USA (CDL-H5248); not shown: His6, N-terminal, kept
T1 sequence (looked up): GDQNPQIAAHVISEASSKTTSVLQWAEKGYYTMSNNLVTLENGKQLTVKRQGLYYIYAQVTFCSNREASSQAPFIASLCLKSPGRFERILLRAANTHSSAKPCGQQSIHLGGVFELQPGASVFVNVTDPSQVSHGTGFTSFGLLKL
Assay: high-speed AFM imaging (HS-AFM); 10 nM hCD40L and 10 nM extracellular hCD40 pre-mixed 1:3, on Ni-treated mica; HEPES buffer pH 7.4; hCD40L adsorbed on mica, hCD40 tracked over time; clusters after 45 min incubation
Settings: both partners purified

- stoichiometry N: ≤ 2 hCD40 per hCD40L trimer
B1: Extracellular human CD40 (residues 20P-190D) with C-terminal His6-tag (domain or fragment)
chain: not shown
notes: CD40, human, extracellular part, residues 20P-190D; Seen by HS-AFM as monomers, dimers and higher-order oligomers; also called soluble hCD40; extracellular hCD40; source: Pfizer Inc., USA (provided); not shown: His6, C-terminal, kept
